Our source for the binding signal values is article PMC9911399, “Two distinct binding modes provide the RNA-binding protein RbFox with extraordinary sequence specificity”.

Residue numbers refer to the chain shown, from its start. Some of the results follow.

The labels stand for the following.
T1: RBFOX1 RRM RbFoxmut (Fox-RRM*) (Homo sapiens, UniProt Q9NWB1 109-208, R118D;E147R;N151S;E152T)
T1 sequence: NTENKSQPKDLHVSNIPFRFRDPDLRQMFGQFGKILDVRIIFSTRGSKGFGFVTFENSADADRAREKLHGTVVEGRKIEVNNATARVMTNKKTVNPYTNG

B1: ACGCCGU (DNA:RNA)
RNA: GGGAGACCGGAAUUCAGAUUGUCCACGCCGUUUAAAUCCCGUCGUAGCCACCA
DNA 1: CAATCTGAATTCCGGTCTCCC
DNA 2: TGGTGGCTACGACGGGATT
B2: AUCGUUA (DNA:RNA)
RNA: B1 RNA with C26U, G27C, C28G, C29U, G30U, U31A
DNA 1: CAATCTGAATTCCGGTCTCCC
DNA 2: TGGTGGCTACGACGGGATT
B3: UGAAGCA (DNA:RNA)
RNA: GGGAGACCGGAAUUCAGAUUGUCCUGAAGCAUUAAAUCCCGUCGUAGCCACCA
DNA 1: CAATCTGAATTCCGGTCTCCC
DNA 2: TGGTGGCTACGACGGGATT
B4: AAGCGAU (DNA:RNA)
RNA: B1 RNA with C26A, C29G, G30A
DNA 1: CAATCTGAATTCCGGTCTCCC
DNA 2: TGGTGGCTACGACGGGATT
B5: ACUCUCG (DNA:RNA)
RNA: B1 RNA with G27U, C29U, G30C, U31G
DNA 1: CAATCTGAATTCCGGTCTCCC
DNA 2: TGGTGGCTACGACGGGATT
B6: AGGUAUC (DNA:RNA)
RNA: B1 RNA with C26G, C28U, C29A, G30U, U31C
DNA 1: CAATCTGAATTCCGGTCTCCC
DNA 2: TGGTGGCTACGACGGGATT
B7: UUCUCGA (DNA:RNA)
RNA: B1 RNA with A25U, C26U, G27C, C28U, U31A
DNA 1: CAATCTGAATTCCGGTCTCCC
DNA 2: TGGTGGCTACGACGGGATT
B8: GUAGCAC (DNA:RNA)
RNA: B1 RNA with A25G, C26U, G27A, C28G, G30A, U31C
DNA 1: CAATCTGAATTCCGGTCTCCC
DNA 2: TGGTGGCTACGACGGGATT
B9: UGUGAGG (DNA:RNA)
RNA: B3 RNA with A27U, A28G, G29A, C30G, A31G
DNA 1: CAATCTGAATTCCGGTCTCCC
DNA 2: TGGTGGCTACGACGGGATT
B10: UCCAAGC (DNA:RNA)
RNA: B1 RNA with A25U, G27C, C28A, C29A, U31C
DNA 1: CAATCTGAATTCCGGTCTCCC
DNA 2: TGGTGGCTACGACGGGATT
B11: GGAGUGG (DNA:RNA)
RNA: B3 RNA with U25G, A28G, G29U, C30G, A31G
DNA 1: CAATCTGAATTCCGGTCTCCC
DNA 2: TGGTGGCTACGACGGGATT
B12: CAAGGGU (DNA:RNA)
RNA: B1 RNA with A25C, C26A, G27A, C28G, C29G
DNA 1: CAATCTGAATTCCGGTCTCCC
DNA 2: TGGTGGCTACGACGGGATT
B13: CGGGCCG (DNA:RNA)
RNA: B1 RNA with A25C, C26G, C28G, G30C, U31G
DNA 1: CAATCTGAATTCCGGTCTCCC
DNA 2: TGGTGGCTACGACGGGATT
B14: AGGGGGG (DNA:RNA)
RNA: B1 RNA with C26G, C28G, C29G, U31G
DNA 1: CAATCTGAATTCCGGTCTCCC
DNA 2: TGGTGGCTACGACGGGATT
B15: CUCCCUG (DNA:RNA)
RNA: B1 RNA with A25C, C26U, G27C, G30U, U31G
DNA 1: CAATCTGAATTCCGGTCTCCC
DNA 2: TGGTGGCTACGACGGGATT
B16: CACUGAG (DNA:RNA)
RNA: B3 RNA with U25C, G26A, A27C, A28U, C30A, A31G
DNA 1: CAATCTGAATTCCGGTCTCCC
DNA 2: TGGTGGCTACGACGGGATT
B17: ACCGGUG (DNA:RNA)
RNA: B1 RNA with G27C, C28G, C29G, G30U, U31G
DNA 1: CAATCTGAATTCCGGTCTCCC
DNA 2: TGGTGGCTACGACGGGATT
B18: AUAUAGA (DNA:RNA)
RNA: B1 RNA with C26U, G27A, C28U, C29A, U31A
DNA 1: CAATCTGAATTCCGGTCTCCC
DNA 2: TGGTGGCTACGACGGGATT
B19: GCACAAG (DNA:RNA)
RNA: B1 RNA with A25G, G27A, C29A, G30A, U31G
DNA 1: CAATCTGAATTCCGGTCTCCC
DNA 2: TGGTGGCTACGACGGGATT
B20: UUUCUAA (DNA:RNA)
RNA: B3 RNA with G26U, A27U, A28C, G29U, C30A
DNA 1: CAATCTGAATTCCGGTCTCCC
DNA 2: TGGTGGCTACGACGGGATT

The target of the assay is T1, RBFOX1 RRM RbFoxmut (Fox-RRM*). As to the kind of experiment: EMSA; HiTS-Eq, 1 nM pool, 10 min; buffer printed only for the single-RNA assays: 10 mM Tris pH 7.5, 150 mM NaCl, 3.4 mM EDTA, 0.001% NP-40, 30 C. Particulars: tags: His6 N-terminal (pET28a); label: 5' 32P. The method, boiled down: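 Purified RbFox RRM, wild type or mutant, was incubated for 10 min in 50 µL with 1 nM of a 5′-radiolabelled RNA pool carrying 7 randomized nucleotides, whose flanks were annealed to DNA oligonucleotides, over a series of increasing protein concentrations. Unbound RNA was resolved on 8% native PAGE, cut out, reverse-transcribed, barcoded by PCR and sequenced on an Illumina HiSeq 2500. Relative association constants were derived from changes in read counts for each RNA species versus the control reaction and normalised to the cognate motif.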
Background: A gel shift assay detects complexes by their altered migration in electrophoresis.
On to B1, for which the binding signal is 0.109 KA relative to UGCAUGU.

For B2, the binding signal was 0.18 KA relative to UGCAUGU.

In the case of B3, the binding signal is 0.107 KA relative to UGCAUGU.

Take B4: the binding signal was 0.0622 KA relative to UGCAUGU.

For B5, the binding signal was 0.0861 KA relative to UGCAUGU.

Regarding B6, the binding signal is 0.191 KA relative to UGCAUGU.

Turning to B7, the binding signal is 0.0669 KA relative to UGCAUGU.

Turning to B8, the binding signal is 0.0949 KA relative to UGCAUGU.

Take B9: the binding signal is 0.111 KA relative to UGCAUGU.

Take B10: the binding signal is 0.0628 KA relative to UGCAUGU.

Take B11: the binding signal was 0.112 KA relative to UGCAUGU.

In the case of B12, the binding signal is 0.0862 KA relative to UGCAUGU.

Consider B13, for which the binding signal was 0.156 KA relative to UGCAUGU.

Regarding B14, the binding signal was 0.104 KA relative to UGCAUGU.

On to B15, for which the binding signal was 0.0994 KA relative to UGCAUGU.

Turning to B16, the binding signal was 0.0817 KA relative to UGCAUGU.

For B17, the binding signal was 0.0922 KA relative to UGCAUGU.

B18: the binding signal was 0.119 KA relative to UGCAUGU.

Regarding B19, the binding signal is 0.0941 KA relative to UGCAUGU.

With B20, the binding signal was 0.0871 KA relative to UGCAUGU.
